# In the supplement of paper PMC11417369:
# ± gives the standard deviation of the averaged measurements. The list shows a part of the results.
# Test system: PfAP2-I AP2 domain 3 (GST-tagged)
# Experiment: gcPBM binding intensity (ln(normalized median fluorescence intensity)); higher = stronger DNA binding
# Procedure, shortened: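 Plasmodium falciparum DNA-binding domains carrying a GST tag were expressed in E. coli and applied for 1 h, at about 25 μg on average, to an Agilent 4 × 180k array. The array held primer-extended double-stranded 36-bp intergenic genomic probes together with negative controls, and binding took place in 1× PBS with 1% milk, 0.2 mg/ml BSA, 0.5% salmon testes DNA and 0.03% Triton X-100. An Alexa488 anti-GST antibody detected bound protein, and the array was scanned at 488 nm. Binding intensity is taken as the highest Masliner-normalised natural-log median intensity across replicate spots of either probe orientation.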
row,Sequence,gcPBM binding intensity (ln)
1,ATAATATAATAATATTGTACATGGTCAAATATGAAA [XGTACX_site8390],7.7 ± 0.61
2,AATTTTGTCCTATGTTGTACTATTTTGCTCTATTTT [XGTACX_site7139],8.13 ± 0.91
3,TAACTTCAAAAATCTTGTACATAAATATATAAAACA [XGTACX_site8574],7.66 ± 0.45
4,TTTCTCTCTTATAAAATACACACGAACAATCATATT [CACACA_site509],7.88 ± 0.47
5,AAAAATGGTGTTAACACACACATATATATATATATA [CACACA_site571],9.52 ± 0.45
6,ATAAATAGTATTATATGTACACATAATATTTATAAA [XGTACX_site4751],7.84 ± 0.2
7,ATAGTTACACGCCAAAAAAAAAAAAAAAAAAAAAAA [CACACA_negctrl_site1133],8.2 ± 0.49
8,TATAATTATGATGATAGTACGTATGAGTTCAAAACA [XGTACX_site4211],7.89 ± 0.41
9,CACATTTTTTAAATATTTTTCTACTCCATAATGTTT [CACACA_negctrl_site557],8.3 ± 0.2
10,TTAATATAGGGAAAAAAAAGAAAATCGAAAATGTGT [CACACA_negctrl_site834],8 ± 0.75
11,TTAAAATGATTGTTACTTTTTTTTCCGTTTTCTTAA [CACACA_negctrl_site1195],7.46 ± 0.8
12,TTGTATTAAAATCAAGTGCATATAATTTAAGTTCAT [GTGCAC_site9495],9.54 ± 0.042
13,CTTTGGTTATAACACACATGCACACGTAAATAAATA [TGCATGCA_site976],8.67 ± 0.38
14,GTAGGTTACAAAATGTGAGAGAAGCAAATATAGAAA [CACACA_negctrl_site1819],8.04 ± 0.84
15,CATCACCTTTTTAAATGTACGCATAATACCAAAAAA [XGTACX_site1587],8.22 ± 0.37
16,TTTTGTTTTTAGTTTATACACACCATATTAATATAA [CACACA_site3102],8.25 ± 0.61
17,TATATTTATAAATGAACACACACGCAATTTGAATCG [CACACA_site3370],7.89 ± 0.49
18,CTGTATTTATTTTTCTGTACCAAATCACCCCTTGTA [XGTACX_site395],8.19 ± 0.63
19,TTTCTTTTTCGATATACACACTGTATGTGTCTAAAA [CACACA_site6054],7.68 ± 0.46

row,Sequence,gcPBM binding intensity (ln)
1,TACGTTTTATGACACACACACAAAAAAAAAAAAAAA [CACACA_site7764],8.14 ± 0.45
2,GATGTATAAAATAATACATGCATGTCCTACATATAT [TGCATGCA_site155],7.76 ± 0.65
3,ACTATTTTAAAAATATGTACATACGTTGTAATTTAA [XGTACX_site7999],7.96 ± 0.32
4,TTTCCGGTAATATGGAAATATATGTGGGTTTTTTTT [CACACA_negctrl_site1536],7.62 ± 0.43
5,CGAAGGATAAACATACGTACATATATGTGTATAATA [XGTACX_site779],7.88 ± 0.43
6,AAAAAATACATCAAAAGAAACATATATATATATATA [GTGCAC_negctrl_site719],9.6 ± 0.33
7,TTTTTTTTTTAGTATGAACACACATATATATTATAA [CACACA_site8957],7.76 ± 0.66
8,ATAAAACTTATTTAACGTACATATTTTATATACCTT [XGTACX_site5353],7.9 ± 0.52
9,TATAAAATAAATAACAAAAAAAATAAAATAAAAATA [TGCATGCA_negctrl_site297],7.5 ± 0.65
10,TATAGCAAAATATTCACACAAACTATTAATAAAAGT [CACACA_site5795],7.66 ± 0.7
11,AATGGTTATAATATATGTACATATAAATATACTGAA [XGTACX_site8533],7.75 ± 0.42
12,ATATAAGTACCTATAACACACATATATTATAAGTAT [CACACA_site7281],7.91 ± 0.48
13,TAGAATAAATTAATTACACACGGAATTATATATATA [CACACA_site1616],8.46 ± 0.6
14,TATAATAGTTCATAGGTGCAATATAATAAATTTATA [GTGCAC_site9573],11.2 ± 0.47
15,AAAAAAAAAAAAAAAAGTACATGAAAAAAAGAAGAA [XGTACX_site8384],8.7 ± 0.27
16,TATCATATATTATAGCGTACTTATTTATTTATTTAT [XGTACX_site1676],7.79 ± 0.36
17,TGTGTAAAAATCATGGGTACACATTTTGATACCAAT [XGTACX_site1779],8.16 ± 0.47
18,AATGAAAAGTAAAATACACACACATAATATAATTTA [CACACA_site8608],7.7 ± 0.5
19,AAACTTGACGAACACACACACACATATATAAAAAAA [CACACA_site6494],8.03 ± 0.37

row,Sequence,gcPBM binding intensity (ln)
1,ATAAATTAAAAACACACACACATCTGGATACCCCTA [CACACA_site5780],8.04 ± 0.4
2,TTTTTATAAAAAATTTACACTATATGACAGAAGTAA [XGTACX_negctrl_site481],7.71 ± 0.46
3,AAAAAAAAAAAAAAGAGTACTCATATAAAAATATAA [XGTACX_site6551],8.18 ± 0.2
4,GGTGGTAAAAAACCTGCATGTCGAAATATTAAATAC [TGCATGCA_site33],8.25 ± 0.78
5,AAGAAGAAACAAAACACACACAGTCTTCTTTTCTAT [CACACA_site3088],7.61 ± 0.85
6,GTATATGAATAATATTTTATGGTAATTTTTTTTTTT [XGTACX_negctrl_site512],7.29 ± 0.77
7,TACAGAATTGTATATAGTACATAAAACAATATATAT [XGTACX_site7275],7.89 ± 0.49
8,AATCGAAATCGTGCACGGACACATGCAGTAGCCGAG [XGTACX_site6001],9.82 ± 0.66
9,TTCCCCCCCAGACACACACACACATACATACCACAT [CACACA_site2305],10.3 ± 0.11
10,ATATATATACACAATAGTACGTGTAATATTATTATT [XGTACX_site2151],8.38 ± 0.7
11,TATACCTATAAATACACACACATATATAAATAAATA [CACACA_site6730],7.78 ± 0.37
12,TTTTCTTTTTGTTCGTGTACACACATGAAATTTATA [XGTACX_site3301],8.78 ± 0.68
13,AAACGTACATAATACACACACATGTATACATATAAA [CACACA_site2048],8.36 ± 0.22
14,ATTTCTTTTTTTTTTTTTTTTAATGTAAAACATTTT [CACACA_negctrl_site1462],7.57 ± 0.4
15,GAAGTTAGTGTTGACTGTACATATATATGTATATAT [XGTACX_site7243],8.04 ± 0.45
16,ATATTTTTATATGAGGTGCATATAATGACAATTAAG,10.7 ± 0.61
17,TCTTTTTATGTTCTAGAGCATTTTATTATTTAACAT [CACACA_negctrl_site1699],8.02 ± 0.83
18,ATACTATTTAAATGGGTGCTAAAAATAACAAAAATT,9.65 ± 0.085
